# Values joined by “and” are separate entries in the source; they are usually repeats but may differ in a detail not shown here. Equal values may be shown once. Where a name gives a salt, the structure may show the parent alone. Out of some 5,800 compounds screened, about 620 (11%) showed activity.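 Rule for the calls: active = score above a cut-off or among the top three wells of a plate; in these data no inactive exceeds 0.85.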 The entries are a selection whose mix differs from that of the whole data set.
# Tested on: primary human hepatic stellate cells (donor 1)
# Assay: scaled lipid accumulation score (0 = DMSO-like, 1 = nortriptyline-like); higher = stronger HSC inactivation (lipid re-accumulation), active = hit call of the paper
# Details: 48 h
# [1] = library stock concentration: 3.33 mM
# [2] = library stock concentration: 10 mM
# [3] = library stock concentration: 80 uM
# [4] = library stock concentration: 400 uM
# [5] = library stock concentration: 2 mM
# [6] = library stock concentration: 1 mM
compound,measurement,setting,value
CC1(C)S[C@@H]2[C@H](NC(=O)[C@H](N)c3ccc(O)cc3)C(=O)N2[C@H]1C(=O)O [Amoxicillin],scaled lipid accumulation score,,inactive: 0.056
same,scaled lipid accumulation score,[1],inactive: ≤ 0
same,scaled lipid accumulation score,[2],inactive: 0.044 and inactive: ≤ 0
CC1(C)S[C@@H]2[C@H](NC(=O)[C@H](N)c3ccc(O)cc3)C(=O)N2[C@H]1C(=O)O,scaled lipid accumulation score,[2],inactive: 0.145
CC1(C)S[C@@H]2[C@H](NC(=O)[C@H](N)c3ccc(O)cc3)C(=O)N2[C@H]1C(=O)O [Amoxicillin Sodium],scaled lipid accumulation score,[1],inactive: ≤ 0
same,scaled lipid accumulation score,[2],inactive: ≤ 0
Cc1cc(C(=O)NOCCO)c(Nc2ccc(I)cc2F)n(C)c1=O,scaled lipid accumulation score,[3],inactive: ≤ -0.009
same,scaled lipid accumulation score,[4],inactive: ≤ -0.009
same,scaled lipid accumulation score,[5],inactive: 0.044
same,scaled lipid accumulation score,[1],inactive: 0.002
same,scaled lipid accumulation score,[2],inactive: ≤ 0 and inactive: ≤ -0.009
Cn1cnc2c(NCc3ccccc3)nc(NCCO)nc21 [Olomoucine],scaled lipid accumulation score,[6],inactive: 0.044
same,scaled lipid accumulation score,[2],inactive: ≤ -0.055 and inactive: 0.016
same,scaled lipid accumulation score,library stock concentration: 16.8 mM,inactive: 0.139
N=C(N)NC(=N)Nc1ccccc1 [1-Phenylbiguanide hydrochloride],scaled lipid accumulation score,[2],inactive: ≤ 0
Oc1cccc(-c2nc(N3CCOCC3)c3sccc3n2)c1 [PI3-Kinase .alpha. Inhibitor 2],scaled lipid accumulation score,[6],inactive: ≤ 0
Nc1nc(Cl)nc2c1ncn2[C@H]1C[C@H](O)[C@@H](CO)O1 [Cladribine],scaled lipid accumulation score,[1],inactive: ≤ 0
same,scaled lipid accumulation score,[2],inactive: ≤ 0
Nc1nc(Cl)nc2c1ncn2[C@H]1C[C@H](O)[C@@H](CO)O1,scaled lipid accumulation score,[2],inactive: ≤ 0
CN[C@@H]1[C@H](O[C@H]2[C@H](O[C@H]3[C@H](O)[C@@H](O)[C@H](N=C(N)N)[C@@H](O)[C@@H]3N=C(N)N)O[C@@H](C)[C@]2(O)C=O)O[C@@H](CO)[C@H](O)[C@H]1O [Streptomycin sulfate],scaled lipid accumulation score,,inactive: ≤ 0
same,scaled lipid accumulation score,library stock concentration: 2.9 mM,inactive: ≤ 0
same,scaled lipid accumulation score,[2],inactive: 0.014
O=C(C=Cc1ccccc1)NC(NC(=S)Nc1ccc(Cl)cc1)C(Cl)(Cl)Cl (configuration not stated),scaled lipid accumulation score,[3],inactive: ≤ -0.001
same,scaled lipid accumulation score,[4],inactive: ≤ -0.001
same,scaled lipid accumulation score,[5],inactive: ≤ -0.001
same,scaled lipid accumulation score,[1],inactive: 0.163
same,scaled lipid accumulation score,[2],inactive: 0.17 and inactive: 0.437 and inactive: 0.246
Cc1cccc(C(=O)O)c1O,scaled lipid accumulation score,[2],inactive: ≤ 0
Cc1cc(C=C2C(=O)C=CC2=O)cc(C)c1O,scaled lipid accumulation score,[2],active: 0.924
O=c1cc(-c2cccc3c2Sc2ccccc2S3)oc(N2CCOCC2)c1,scaled lipid accumulation score,[3],inactive: ≤ 0
same,scaled lipid accumulation score,[4],inactive: ≤ 0 and inactive: ≤ -0.005
same,scaled lipid accumulation score,[5],inactive: ≤ 0 and inactive: ≤ -0.005
same,scaled lipid accumulation score,[1],inactive: ≤ 0
same,scaled lipid accumulation score,[2],inactive: ≤ 0 and inactive: ≤ -0.001 and inactive: ≤ -0.005
CCCCC[C@H](O)/C=C/[C@H]1[C@H](O)CC(=O)[C@H]1C/C=C\CCCC(=O)OC(C)C [8-iso Prostaglandin E2 isopropyl ester],scaled lipid accumulation score,[6],inactive: ≤ 0
Oc1ccc([C@H]2COc3cc(O)ccc3C2)cc1 [Equol],scaled lipid accumulation score,[1],inactive: 0.004
same,scaled lipid accumulation score,[2],inactive: 0.016
Oc1ccc([C@H]2COc3cc(O)ccc3C2)cc1 [(?)-Equol],scaled lipid accumulation score,[6],inactive: ≤ 0
Fc1ccc(C(c2ccc(F)cc2)N2CCN(C/C=C/c3ccccc3)CC2)cc1 [Flunarizine dihydrochloride],scaled lipid accumulation score,,inactive: ≤ 0
same,scaled lipid accumulation score,[2],inactive: 0.534 and inactive: 0.325
Fc1ccc(C(c2ccc(F)cc2)N2CCN(C/C=C/c3ccccc3)CC2)cc1 [Flunarizine-2HCl],scaled lipid accumulation score,library stock concentration: 4.9 mM,inactive: 0.188
Fc1ccc(C(c2ccc(F)cc2)N2CCN(C/C=C/c3ccccc3)CC2)cc1 [Flunarizine 2HCl],scaled lipid accumulation score,[1],inactive: 0.164
same,scaled lipid accumulation score,[2],inactive: 0.348
Fc1ccc(C(c2ccc(F)cc2)N2CCN(C/C=C/c3ccccc3)CC2)cc1 [Flunarizine hydrochloride],scaled lipid accumulation score,[2],inactive: 0.082
CN1CCc2c(c3ccccc3n2Cc2ccccc2)C1 [Mebhydrolin naphthalenesulfonate],scaled lipid accumulation score,[2],inactive: ≤ 0
COc1cc2ncnc(Nc3ccc(F)c(Cl)c3)c2cc1OCCCN1CCOCC1 [Iressa],scaled lipid accumulation score,[2],active: 0.9
Cc1ccc(Nc2c(F)cccc2Cl)c(CC(=O)O)c1 [Lumiracoxib],scaled lipid accumulation score,[1],inactive: ≤ 0
same,scaled lipid accumulation score,[2],inactive: 0.025
Cc1ccc(Nc2c(F)cccc2Cl)c(CC(=O)O)c1,scaled lipid accumulation score,[2],inactive: ≤ 0
CC(=O)Nc1cc2ccccc2oc1=O [3-Acetamidocoumarin],scaled lipid accumulation score,,inactive: ≤ 0
O=[N+]([O-])c1ccccc1S(=O)(=O)NCC1CCC(CNCC2CCc3ccccc3C2)CC1 (configuration not stated) [NTNCB hydrochloride],scaled lipid accumulation score,[2],inactive: 0.622
CCCCC(=O)O[C@H]1CC[C@H]2[C@@H]3CCc4cc(O)ccc4[C@H]3CC[C@]12C [Estradiol valerate],scaled lipid accumulation score,[1],inactive: ≤ 0
same,scaled lipid accumulation score,[2],inactive: 0.4 and inactive: ≤ 0
CCCCC(=O)O[C@H]1CC[C@H]2[C@@H]3CCc4cc(O)ccc4[C@H]3CC[C@]12C,scaled lipid accumulation score,[2],inactive: 0.253
Cc1nc2ccc(-n3ncc(C(=O)c4cc5ccccc5[nH]4)c3N)cc2[nH]1,scaled lipid accumulation score,[3],inactive: 0.004
same,scaled lipid accumulation score,[4],inactive: ≤ -0.001
same,scaled lipid accumulation score,[5],inactive: ≤ 0
COc1cc2c(Nc3ccc(Br)cc3F)ncnc2cc1OCC1CCN(C)CC1 [Vandetanib],scaled lipid accumulation score,[5],active: 1.27
same,scaled lipid accumulation score,[2],active: 1.66
N#Cc1c(O)c2c(-c3ccc(-c4ccccc4O)cc3)csc2[nH]c1=O,scaled lipid accumulation score,[1],inactive: 0.004
same,scaled lipid accumulation score,[2],inactive: ≤ 0 and inactive: 0.001
N=C(N)c1ccc(OCCCCCOc2ccc(C(=N)N)cc2)cc1 [Pentamidine],scaled lipid accumulation score,[1],inactive: ≤ 0
same,scaled lipid accumulation score,library stock concentration: 5.9 mM,inactive: ≤ -0.006
same,scaled lipid accumulation score,[2],inactive: 0.195
N=C(N)c1ccc(OCCCCCOc2ccc(C(=N)N)cc2)cc1 [Pentamidine isethionate],scaled lipid accumulation score,,inactive: ≤ 0
same,scaled lipid accumulation score,[2],inactive: 0.802 and inactive: ≤ 0
O=C(OC[C@H]1O[C@@H](OC(=O)c2cc(O)c(O)c(OC(=O)c3cc(O)c(O)c(O)c3)c2)[C@H](OC(=O)c2cc(O)c(O)c(OC(=O)c3cc(O)c(O)c(O)c3)c2)[C@@H](OC(=O)c2cc(O)c(O)c(OC(=O)c3cc(O)c(O)c(O)c3)c2)[C@@H]1OC(=O)c1cc(O)c(O)c(OC(=O)c2cc(O)c(O)c(O)c2)c1)c1cc(O)c(O)c(OC(=O)c2cc(O)c(O)c(O)c2)c1 [Tannic acid],scaled lipid accumulation score,[2],inactive: ≤ -0.027

# From the supplement of paper PMC9135407
